# Where “and” joins values, the source holds several entries; their conditions need not be identical. Identical values can stand only once. Inconclusive means that the source gave no clear call. Such entries were picked first, then a sample of the others. For some assays here: Potencies of inconclusive entries are doubtful fits and often do not repeat. Where a structure was tested more than once in an assay, its records may differ in their call. Calls of active or inactive are those of the source. Unless noted, the call rests on the fitted dose curve; in most records, active means well fitted curve in the direction sought with a large enough effect in the repeat runs; inconclusive means weak or mixed curves; inactive means no such curve, though single readings can be large; an effect the other way counts as inactive or inconclusive.
# How the values were obtained:
# [1] = biological target: Androgen receptor (Homo sapiens) (UniProt P10275); assay: qHTS assay to identify small molecule antagonists of the androgen receptor (AR) signaling pathway using the MDA cell line in the presence of 0.5 nM R1881 (AID 1259243); further: potency means the concentration at half of the fitted maximal effect; nearly all actives have a fitted effect of over 50% in size
# Method in brief: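 Cells: MDA-kb2 (MMTV-luc). Stimulus: 0.5 nM R1881. Time: 16 hr, 37C, no CO2. Detection: ONE-Glo luminescence after 30 min at RT.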
# [2] = qHTS assay to identify small molecule phospholipidosis (PLD) inducers (AID 1259344; active means well fitted curve in the direction sought with a large enough effect; inconclusive means small, poorly fitted or top-dose-only effect, or another doubt; inactive means no such curve, though single readings can be large; an effect the other way counts as inactive or inconclusive; further: on the % scale 0 is the no-effect control and ±100 the full control effect)
# Method in brief: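 Read-out is LipidTOX Red fluorescence (ex 595/em 615) imaged in HepG2 cells after 24 h compound exposure at 37 C, with Hoechst nuclear counterstain (ex 352/em 461) allowing per-cell normalisation.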
# [3] = qHTS assay to identify small molecule antagonists of the sonic hedgehog signaling (Shh) pathway - cell viability counter screen (AID 1259367); further: potency means the concentration at half of the fitted maximal effect; nearly all actives have a fitted effect of over 55% in size
# Method in brief: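 Fluorescence read-out (CellTiter-Fluor, 1 hr at 37C) taken after 23 hr compound treatment of 3T3 Gli1-Luc cells stimulated with conditioned medium. Cells were seeded at 2,000 per well and pre-incubated 4 hr.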
# [4] = qHTS assay to identify small molecule agonists of the sonic hedgehog signaling (Shh) pathway (AID 1259368; calls by dose curve; further: on the % scale 0 is the no-effect control and ±100 the full control effect; nearly all actives have a fitted effect of over 15% in size)
# Method in brief: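 Stable NIH/3T3 Gli1-Luc reporter clone; 24 hr cpd exposure after a 4 hr settling period; luminescence endpoint.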
# [5] = qHTS assay to identify small molecule antagonists of the sonic hedgehog signaling (Shh) pathway (AID 1259369; calls by dose curve; further: potency means the concentration at half of the fitted maximal effect; nearly all actives have a fitted effect of over 45% in size)
# Method in brief: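 Gli1 transcriptional reporter (firefly Luc) in NIH/3T3 background, conditioned-medium activated. 24hr exposure, luminescence endpoint.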
# [6] = qHTS assay to identify small molecule agonists of the estrogen receptor beta (ER-beta) signaling pathway - cell viability counter screen (AID 1259380); further: potency means the concentration at half of the fitted maximal effect; nearly all actives have a fitted effect of over 30% in size
# Method in brief: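 In this qHTS counter screen, HEK293T cells carrying an ER-beta/UAS beta-lactamase reporter, grown in 2% charcoal-stripped FBS, received compound for 16 hr; ATP-based CellTiter-Glo luminescence was then read after 30 min at room temperature.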
# [7] = biological target: Thyrotropin receptor (Homo sapiens) (UniProt P16473); assay: qHTS assay to identify small molecule antagonists of the thyroid stimulating hormone receptor (TSHR) signaling pathway (AID 1259385; calls by dose curve; further: nearly all actives have a fitted effect of over 20% in size; further: potency means the concentration at half of the fitted maximal effect; on activity change, negative = inhibition: on the % scale 0 is the no-effect control and ±100 the full control effect); details: TSHR-HEK293 cAMP HTRF, TSH-stimulated antagonist mode; activity change, negative = inhibition: at 92.4 µM (top of the series) unless noted
# Method in brief: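 TSHR-HEK293 cells (800/well) plated 18 h, then compounds with Ro20-1724 and TSH at 1.5 ng/mL final, 30 min at room temperature. cAMP quantified by HTRF (cAMP-d2/anti-cAMP-cryptate, 1 h); 15 concentrations in triplicate.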
# [8] = biological target: Estrogen receptor (Homo sapiens) (UniProt P03372); assay: qHTS assay to identify small molecule antagonists of the estrogen receptor alpha (ER-alpha) signaling pathway using the BG1 cell line in the presence of 0.1 nM 17-beta-estradiol (AID 1259244); further: potency means the concentration at half of the fitted maximal effect; nearly all actives have a fitted effect of over 50% in size
# Method in brief: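 Seeding of stripped-serum-adapted VM7Luc4E2 cells, 24 h attachment, compound transfer, then 0.1 nM final 17beta-estradiol; after 22 h incubation, ONE-Glo reagent and luminescence reading.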
# [9] = qHTS assay to identify small molecule agonists of the sonic hedgehog signaling (Shh) pathway - cell viability counter screen (AID 1259366); further: potency means the concentration at half of the fitted maximal effect; nearly all actives have a fitted effect of over 50% in size
# Method in brief: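 NIH/3T3-derived 3T3 Gli1-Luc cells (stable Gli1-responsive firefly luciferase reporter) were seeded, rested 4 hr at 37 C/5% CO2, then exposed to compounds in DMSO for 24 hr; viability was read by CellTiter-Fluor fluorescence in the same wells.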
# [10] = qHTS assay to identify small molecule HDAC inhibitors - cell viability counter screen (AID 1259365); further: potency means the concentration at half of the fitted maximal effect; nearly all actives have a fitted effect of over 50% in size
# Method in brief: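 Wild-type HCT-116 cells were seeded at 1,500 per well, incubated overnight at 37 C, then exposed to compounds in DMSO for 2hr. Viability was read by CellTiter-Glo luminescence after 30min at room temperature.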
# [11] = biological target: Estrogen receptor beta (Homo sapiens) (UniProt Q92731); assay: qHTS assay to identify small molecule antagonists of the estrogen receptor beta (ER-beta) signaling pathway (AID 1259378; active means well fitted inhibition curve with a large enough effect in the signal ratio in the repeat runs, not every such curve was filed as active; inconclusive means weak or mixed curves, or effect the other way; inactive means no such curve, though single readings can be large or run the other way; the % refers to the signal ratio; further: potency means the concentration at half of the fitted maximal effect; on activity, negative = inhibition: on the % scale 0 is the no-effect control and ±100 the full control effect); details: ER-beta-UAS-bla HEK293T, beta-lactamase FRET ratio, 16 h
# Method in brief: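 ER-beta-UAS-bla HEK293T cells in 2% charcoal-stripped FBS medium treated with compound plus 1nM final 17-beta-estradiol for 16 hr at 37C. Beta-lactamase reporter read by FRET substrate fluorescence after 2 hours at room temperature.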
# [12] = qHTS assay to identify small molecule agonists of the androgen receptor (AR) signaling pathway in the presence of an antagonist - cell viability counter screen (AID 1259379); further: potency means the concentration at half of the fitted maximal effect; nearly all actives have a fitted effect of over 25% in size
# Method in brief: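 Counter screen for cell viability run in parallel with the AR agonist-mode luciferase assay. MDA-kb2 cells were co-treated with nilutamide (3.0uM final) and compounds, then incubated 16 hr at 37C, and CellTiter-Fluor fluorescence was measured.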
# [13] = qHTS assay to identify small molecule agonists of the estrogen receptor alpha (ER-alpha) signaling pathway in the presence of an antagonist - cell viability counter screen (AID 1259386);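 further: potency means the concentration at half of the fitted maximal effect; cells exposed to compounds for 22 h at 37 °C before the viability read; nearly all actives have a fitted effect of over 30% in size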
# Method in brief: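 Steps: 5-day stripped-FBS culture; seed and incubate 24hr; add ICI-182,780 (10.0nM final); pin 15-point compound titration; incubate 22hr at 37C; add CellTiter-Fluor at 21hr; read fluorescence.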
# [14] = qHTS assay to identify small molecule antagonists of the estrogen receptor beta (ER-beta) signaling pathway - cell viability counter screen (AID 1259382); further: potency means the concentration at half of the fitted maximal effect; nearly all actives have a fitted effect of over 55% in size
# Method in brief: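 HEK293T ER-beta-UAS-bla, 2% charcoal-stripped FBS; compounds + 1nM E2 16 hr 37C; CellTiter-Glo luminescence, 30 min RT.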
# [15] = biological target: Estrogen receptor beta (Homo sapiens) (UniProt Q92731); assay: qHTS assay to identify small molecule agonists of the estrogen receptor beta (ER-beta) signaling pathway (AID 1259377; active means well fitted activation curve with a large enough effect in the signal ratio in the repeat runs, not every such curve was filed as active; inconclusive means weak or mixed curves, or effect the other way; the % refers to the signal ratio; further: potency means the concentration at half of the fitted maximal effect); details: ER-beta-UAS-bla HEK293T, beta-lactamase FRET ratio, 16 h; activation: at 92.4 µM (top of the series) unless noted
# Method in brief: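 ER-beta-UAS-bla HEK293T (GripTite) cells carrying a UAS-driven beta-lactamase reporter, in medium with 2% charcoal-stripped FBS, were exposed to compounds for 16 hr at 37C; LiveBLAzer B/G FRET substrate was then added and fluorescence read after 2 hours at room temperature.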
# [16] = qHTS assay to identify small molecule antagonists of the androgen receptor (AR) signaling pathway using the MDA cell line in the presence of 0.5 nM R1881 - cell viability counter screen (AID 1259242); further: potency means the concentration at half of the fitted maximal effect; nearly all actives have a fitted effect of over 45% in size
# Method in brief: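 Human breast carcinoma MDA-kb2 cells, cultured without CO2, receive compounds alongside 0.5 nM (final) R1881 agonist. After 16 hr at 37C, viability is taken as live-cell protease signal.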
# [17] = activity, negative = inhibition: at 92.4 µM (top of the series) unless noted
# Tags describe the fitted curve by direction and shape or compound fluorescence and quenching.
# UniProt P10275, sequence (P10275 whole entry, looked up): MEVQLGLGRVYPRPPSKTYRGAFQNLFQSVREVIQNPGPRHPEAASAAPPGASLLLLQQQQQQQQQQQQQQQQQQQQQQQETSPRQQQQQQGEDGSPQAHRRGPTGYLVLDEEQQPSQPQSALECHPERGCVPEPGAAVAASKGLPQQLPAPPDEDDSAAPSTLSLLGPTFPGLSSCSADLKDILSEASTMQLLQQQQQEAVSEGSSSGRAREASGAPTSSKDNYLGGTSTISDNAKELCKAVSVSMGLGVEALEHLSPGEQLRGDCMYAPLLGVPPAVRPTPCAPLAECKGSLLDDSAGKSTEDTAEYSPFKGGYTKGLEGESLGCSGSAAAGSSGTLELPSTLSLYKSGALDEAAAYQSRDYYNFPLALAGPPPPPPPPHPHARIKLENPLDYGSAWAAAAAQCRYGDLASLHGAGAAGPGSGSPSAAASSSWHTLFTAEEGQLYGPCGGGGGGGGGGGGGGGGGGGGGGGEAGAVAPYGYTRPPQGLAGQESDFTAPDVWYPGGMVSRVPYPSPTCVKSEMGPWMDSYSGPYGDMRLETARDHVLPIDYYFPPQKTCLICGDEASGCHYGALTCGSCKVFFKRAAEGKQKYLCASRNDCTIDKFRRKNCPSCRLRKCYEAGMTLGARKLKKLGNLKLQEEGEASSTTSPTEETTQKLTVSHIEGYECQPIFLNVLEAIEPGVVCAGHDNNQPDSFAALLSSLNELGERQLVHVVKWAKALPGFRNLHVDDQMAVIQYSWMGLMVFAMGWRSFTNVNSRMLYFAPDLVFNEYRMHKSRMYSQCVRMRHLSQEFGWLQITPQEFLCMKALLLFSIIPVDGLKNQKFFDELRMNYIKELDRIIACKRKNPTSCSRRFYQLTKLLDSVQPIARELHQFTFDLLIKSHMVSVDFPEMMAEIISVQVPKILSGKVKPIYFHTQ
# UniProt Q92731, sequence (Q92731 whole entry, looked up): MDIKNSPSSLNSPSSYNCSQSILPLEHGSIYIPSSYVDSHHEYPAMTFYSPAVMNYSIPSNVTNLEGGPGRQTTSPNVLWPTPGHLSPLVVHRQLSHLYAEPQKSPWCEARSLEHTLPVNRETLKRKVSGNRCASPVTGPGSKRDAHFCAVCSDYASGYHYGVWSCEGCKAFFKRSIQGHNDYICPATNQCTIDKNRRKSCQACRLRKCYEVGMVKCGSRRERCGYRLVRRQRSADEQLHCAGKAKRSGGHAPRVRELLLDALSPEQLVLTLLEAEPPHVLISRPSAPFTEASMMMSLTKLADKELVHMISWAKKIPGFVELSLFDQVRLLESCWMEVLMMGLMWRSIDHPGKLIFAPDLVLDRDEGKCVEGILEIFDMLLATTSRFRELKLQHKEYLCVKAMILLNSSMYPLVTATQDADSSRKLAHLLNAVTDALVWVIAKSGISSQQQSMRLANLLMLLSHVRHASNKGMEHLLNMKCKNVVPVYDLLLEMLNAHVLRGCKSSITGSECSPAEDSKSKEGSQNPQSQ
# UniProt P16473, sequence (P16473 whole entry, looked up): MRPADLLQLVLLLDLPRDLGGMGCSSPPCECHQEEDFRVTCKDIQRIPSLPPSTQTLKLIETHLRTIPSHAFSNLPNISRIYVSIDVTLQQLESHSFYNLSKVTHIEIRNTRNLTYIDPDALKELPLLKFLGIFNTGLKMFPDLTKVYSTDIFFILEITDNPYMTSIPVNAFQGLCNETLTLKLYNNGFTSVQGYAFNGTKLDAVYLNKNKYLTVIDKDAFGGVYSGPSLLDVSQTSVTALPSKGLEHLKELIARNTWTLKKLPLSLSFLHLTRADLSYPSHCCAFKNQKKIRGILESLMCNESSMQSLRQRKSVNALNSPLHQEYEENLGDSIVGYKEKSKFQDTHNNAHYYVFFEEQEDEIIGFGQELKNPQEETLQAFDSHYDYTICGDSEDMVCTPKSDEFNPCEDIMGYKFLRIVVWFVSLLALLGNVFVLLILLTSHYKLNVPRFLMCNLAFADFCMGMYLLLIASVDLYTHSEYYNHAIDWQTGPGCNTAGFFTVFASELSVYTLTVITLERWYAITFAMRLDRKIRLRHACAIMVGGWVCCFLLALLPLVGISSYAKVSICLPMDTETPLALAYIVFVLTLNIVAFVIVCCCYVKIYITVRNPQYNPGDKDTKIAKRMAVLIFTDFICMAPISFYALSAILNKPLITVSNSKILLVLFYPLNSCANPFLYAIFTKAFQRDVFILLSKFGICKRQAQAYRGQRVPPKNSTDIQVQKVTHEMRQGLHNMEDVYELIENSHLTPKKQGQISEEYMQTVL
# UniProt P03372, sequence (P03372 whole entry, looked up): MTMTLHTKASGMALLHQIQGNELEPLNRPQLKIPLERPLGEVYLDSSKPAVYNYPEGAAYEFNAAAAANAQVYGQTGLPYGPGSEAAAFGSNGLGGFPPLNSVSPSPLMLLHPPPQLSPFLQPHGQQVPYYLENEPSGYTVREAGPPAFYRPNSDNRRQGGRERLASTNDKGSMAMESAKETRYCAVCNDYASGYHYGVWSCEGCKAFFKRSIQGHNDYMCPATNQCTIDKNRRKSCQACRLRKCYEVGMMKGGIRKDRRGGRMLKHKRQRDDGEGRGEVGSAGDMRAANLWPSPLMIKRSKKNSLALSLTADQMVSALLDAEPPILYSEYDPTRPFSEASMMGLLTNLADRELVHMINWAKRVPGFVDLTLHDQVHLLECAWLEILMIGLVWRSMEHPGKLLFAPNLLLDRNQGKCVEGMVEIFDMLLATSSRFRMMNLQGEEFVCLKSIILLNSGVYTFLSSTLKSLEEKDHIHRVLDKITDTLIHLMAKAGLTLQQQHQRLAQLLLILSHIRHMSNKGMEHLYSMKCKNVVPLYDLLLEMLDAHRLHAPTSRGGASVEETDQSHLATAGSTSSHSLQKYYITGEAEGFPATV
smiles,measurement,setting,value
CC(C)(c1ccc(O)cc1)c1ccc(O)cc1,Potency,[1],active: 9.58 µM and active: 6.98 µM
same,Potency,[2],inactive
same,Potency,[3],"inconclusive: 67.8 µM [cytotoxic, partial curve, poor fit] and inconclusive: 55.4 µM [cytotoxic]"
same,Potency,[4],inactive
same,Potency,[5],active: 38.1 µM and active: 19.7 µM
same,Potency,[6],"inconclusive: 19.1 µM [cytotoxic, partial curve] and inconclusive: 22.1 µM [cytotoxic]"
same,Potency,[7],inactive
COC(=O)c1c(Cl)c(Cl)c(C(=O)OC)c(Cl)c1Cl,Potency,[8],"inconclusive: 30.6 µM [inhibitor, partial curve]"
same,Potency,[9],"inconclusive: 68.6 µM [cytotoxic, single point]"
same,Potency,[3],"inconclusive: 0.243 µM [cytotoxic, single point]"
same,Potency,[5],inconclusive: 61.1 µM [inhibitor]
same,Potency,[6],"inconclusive: 13.7 µM [cytotoxic, single point]"
same,Potency,[7],inconclusive: 68.6 µM
COC(=O)C1=C(C)NC(C)=C(C(=O)OC)C1c1ccccc1[N+](=O)[O-],Potency,[8],"inconclusive: 17.2 µM [inhibitor, full curve]"
same,Potency,[10],"inconclusive: 30.7 µM [rising, full curve, poor fit]"
same,Potency,[9],"inconclusive: 33.5 µM [cytotoxic, single point]"
same,Potency,[5],active: 6.12 µM and active: 6.68 µM
same,"activity, negative = inhibition",[11]; [17],inconclusive: -65.9%
same,"activity, negative = inhibition",[11]; at 42.5 µM (top of the series),inactive: -9.47%
same,Potency,[12],"inconclusive: 61.2 µM [cytotoxic, partial curve]"
same,Potency,[6],"inconclusive: 27.3 µM [cytotoxic, single point]"
same,Potency,[13],"inconclusive: 54.5 µM [cytotoxic, partial curve]"
CCN(CC)CCOC(=O)C1(C2CCCCC2)CCCCC1,Potency,[1],"inconclusive: 29.8 µM [inhibitor, single point]"
same,Potency,[9],"inconclusive: 29.8 µM [cytotoxic, partial curve, poor fit]"
same,Potency,[5],"inconclusive: 21.1 µM [inhibitor, partial curve, poor fit]"
same,Potency,[6],active: 26.6 µM
same,Potency,[14],inconclusive: 29.8 µM [cytotoxic]
same,Potency,[7],active: 29.8 µM
CCCCC(CC)COC(=O)CC(C(=O)OCC(CC)CCCC)S(=O)(=O)O (stereo unspecified),Potency,[8],"inconclusive: 66 µM [inhibitor, single point]"
same,Potency,[9],"inconclusive: 66 µM [cytotoxic] and inconclusive: 61.1 µM [cytotoxic, partial curve, poor fit]"
same,Potency,[3],"inconclusive: 52.4 µM [cytotoxic, partial curve]"
same,Potency,[5],inconclusive: 41.7 µM [inhibitor]
same,Potency,[15],inconclusive: 74.1 µM [single point]
same,Potency,[11]; [17],"inconclusive: 46.7 µM [inhibitor, partial curve]"
same,"activity, negative = inhibition",[11]; [17],inconclusive: -57.3%
same,Potency,[12],"inconclusive: 52.4 µM [cytotoxic, partial curve, poor fit]"
same,Potency,[14],active: 29.5 µM and active: 27.3 µM
same,Potency,[13],"inconclusive: 58.8 µM [cytotoxic, partial curve, poor fit]"
CCCCc1oc2ccc(NS(C)(=O)=O)cc2c1C(=O)c1ccc(OCCCN(CCCC)CCCC)cc1,Potency,[16],"inconclusive: 29.8 µM [cytotoxic, single point]"
same,Potency,[3],active: 26.6 µM
same,Potency,[15],"inconclusive: 29.8 µM [falling, single point]"
same,Potency,[11]; [17],"inconclusive: 37.6 µM [cytotoxic, single point]"
same,Potency,[14],active: 10.6 µM
same,Potency,[7],active: 29.8 µM
O=C1Cc2cc(CCN3CCN(c4nsc5ccccc45)CC3)c(Cl)cc2N1,Potency,[16],inconclusive: 33.5 µM [cytotoxic]
same,Potency,[3],"inconclusive: 29.8 µM [cytotoxic, single point]"
same,"activity, negative = inhibition",[11]; [17],inconclusive: -28.5% [at 42.5 µM]
same,Potency,[6],active: 23.7 µM
same,Potency,[14],"inconclusive: 26.6 µM [cytotoxic, partial curve, poor fit]"
same,Potency,[13],"inconclusive: 33.5 µM [cytotoxic, single point]"
CC(CN1c2ccccc2Sc2ccccc21)N(C)C (stereo unspecified),Potency,[16],"inconclusive: 69.3 µM [cytotoxic, partial curve, poor fit]"
same,Potency,[3],"inconclusive: 30.6 µM [cytotoxic, partial curve]"
same,Potency,[11]; [17],inconclusive: 69.3 µM [single point] and active: 43.3 µM and active: 29.8 µM
same,Potency,[12],"inconclusive: 69.3 µM [cytotoxic, partial curve] and inconclusive: 68.6 µM [cytotoxic, single point]"
same,Potency,[14],active: 24.6 µM and active: 21.7 µM and active: 16.8 µM
same,Potency,[7],inactive
